Results: PubChem BioAssay AID686979 (National Center for Advancing Translational Sciences (NCATS), 2013)
“And” between values parts separate entries of the source, which are not always exact repeats. Equal values may be shown once. About 50,000 (12%) of roughly 420,000 compounds were called active. This list was built around the results that the source calls inconclusive (neither active nor inactive); the mix of calls is not that of the screen. Calls come from the whole dose curve; as a rule, active = well fitted inhibition curve with a large enough effect; inconclusive = small, poorly fitted or top-dose-only effect; inactive = flat fitted curve, though single readings scatter. A potency beside an inconclusive call is a rough fit, not a confirmed value.

Experiment: qHTS for Inhibitors of human tyrosyl-DNA phosphodiesterase 1 (TDP1): qHTS in cells in presence of CPT; note: nearly all actives have a fitted effect of over 55% in size
Details: chicken DT40 Tdp1-/-;hTDP1 cells + 20 nM CPT, ATP luminescence, 48 h; activity change, negative = growth inhibition: at 46.2 µM (top of the series) unless noted
Method in brief: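 Chicken DT40 Tdp1-/- cells complemented with human TDP1, 400 cells/well, exposed to compounds plus 20 nM camptothecin for at least 48 h at 37 C; viability read as ATP content by CellTiter-Glo luminescence.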
% is set by controls: 0 for no effect and ±100 for the full control effect; potency is the fitted concentration of half-maximal effect; tags give direction and shape of the fitted curve.

Row | SMILES | Potency | activity change, negative = growth inhibition
1 | O=C(Nc1ccc2oc(-c3ccccc3)nc2c1)c1ccc2ccccc2c1 | inconclusive: 29.1 µM [inhibitor, single point] | –
2 | CC(NC(=O)C(=O)NCCN1CCN(C(=O)c2ccccc2Br)CC1)c1ccccc1 (stereo not given) | – | inactive: -8.24%
3 | CCc1cc2c(=O)c(-c3cnn(-c4ccccc4)c3)c(C)oc2c(CN2CCCCC2)c1O | inconclusive: 29.1 µM [inhibitor, single point] | –
4 | CN(C)CCNc1ccc(-c2nn(C)c(=O)c3ccccc23)cc1[N+](=O)[O-] | inconclusive: 20.6 µM [inhibitor, single point] | –
5 | Cc1c(NS(=O)(=O)c2ccc(N(C)C3CCCCC3)c([N+](=O)[O-])c2)c(=O)n(-c2ccccc2)n1C | inconclusive: 29.1 µM [inhibitor, single point] | –
6 | CCCCOc1ccc(C(=O)NCC(=O)N2CC=C(c3ccccc3)CC2)cc1 | inconclusive: 14.6 µM [inhibitor, single point] | –
7 | CCOc1cc(Br)c(C(C)NC(=O)c2cccnc2)cc1OCC (stereo not given) | active: 18.4 µM | –
8 | CC(C)CN(C(=O)COC(=O)c1ccccc1Sc1ccccc1C#N)C1CCS(=O)(=O)C1 (stereo not given) | inconclusive: 16.4 µM [inhibitor, single point] | –
9 | Cc1cccc(C)c1OCC(=O)Nc1cccc(-c2nnc(-c3ccccc3)o2)c1 | active: 18.4 µM | –
10 | COCCCNc1ccn2nc(-c3ccc(OCCN4CCOCC4)cc3)cc2n1 | inconclusive: 16.4 µM [inhibitor, single point] | –
11 | Cc1ccc(-c2nc(CSCC(=O)NC3CCN(Cc4ccccc4)CC3)c(C)o2)cc1 | inconclusive: 18.4 µM [inhibitor, single point] | –
12 | Cc1c(-c2cccc(Cl)c2)nc2ccccc2c1C(=O)NC1CC1 | inconclusive: 7.31 µM [inhibitor, full curve, poor fit] | –
13 | CC1(C)Cc2nc3oc4c(N5CCOCC5)ncnc4c3cc2CO1 | inconclusive: 5.17 µM [inhibitor, full curve, poor fit] | –
14 | CC(C(=O)NCC1CCCCC1)N1CCN(S(=O)(=O)c2cccs2)CC1 (stereo not given) | inconclusive: 20.6 µM [inhibitor, partial curve] | –
15 | O=C(NCC1CCCO1)c1cc2ccccc2cc1O (stereo not given) | – | inactive: -16.4%
16 | COc1ccc(/C=N/NC(=O)c2ccc(Cl)cc2)cc1Cn1cc(Cl)cn1 | – | inactive: -16.9%
17 | O=c1ccc(-c2ccc(S(=O)(=O)Nc3ccc(F)cc3)s2)n[nH]1 | – | inconclusive: -31% [inhibitor]
18 | CCc1nn(CCCC(=O)Nc2ccc(C)c(C)c2)c(=O)c2cc3occc3n12 | inconclusive: 29.1 µM [inhibitor, single point] | –
19 | COc1cc2c(cc1OC)C(c1ccc(N(C)C)cc1)NCC2 (stereo not given) | inconclusive: 29.1 µM [inhibitor, single point] | –
20 | Cc1ccc(C(=O)N/N=C\c2ccc(-c3ccc(Cl)c(Cl)c3)o2)cn1 | inconclusive: 29.1 µM [inhibitor, single point] | –
21 | COc1ccccc1C(NC(=O)C1CCN(CCOc2ccc(Cl)cc2Cl)CC1)c1ccccn1 (stereo not given) | inconclusive: 29.1 µM [inhibitor, single point] | –
22 | COCc1cc(CN2CCCC(C(=O)c3cccc(C(F)(F)F)c3)C2)ccc1OC (stereo not given) | inconclusive: 29.1 µM [inhibitor, single point] | –
23 | O=[N+]([O-])c1ccccc1S(=O)(=O)N1CCN(c2ccccc2)CC1 | – | inactive: -4.88%
24 | CC(=O)c1ccc(OCC(=O)N2CCN(S(=O)(=O)c3ccc(C)cc3C)CC2)cc1 | inconclusive: 18.4 µM [inhibitor, single point] | –

Row | SMILES | Potency | activity change, negative = growth inhibition
25 | COc1cc2c(cc1OC)C(COc1ccc3c(C)cc(=O)oc3c1)N(C(=O)c1cccc(OC)c1OC)CC2 (stereo not given) | inconclusive: 4.61 µM [inhibitor, single point] | –
26 | COc1ccc(/C=N/NC(=O)c2cccnc2)cc1O | – | inactive: -0.403%
27 | CC(C)[C@H](NC(=O)N1CC(=O)Nc2ccccc21)C(=O)N[C@@H](Cc1c[nH]c2ccccc12)C(=O)O | – | inactive: 8.26%
28 | CC(O)CC(=O)NOCc1ccccc1 (stereo not given) | – | inactive: 2.2%
29 | CC(=O)c1cccc(NC(=O)c2ccc3c(=O)n4c(nc3c2)CCCCC4)c1 | inconclusive: 29.1 µM [inhibitor, single point] | –
30 | Cc1ccc(NC(=O)CSc2nc3ccccc3nc2N2CCCC2)cc1 | active: 11.6 µM | –
31 | Cc1ccccc1NC(=O)COC(=O)c1ccc2c(c1)OCCO2 | – | inactive: -0.963%
32 | Cc1oc(-c2ccccc2NC(=O)c2ccccc2)nc1CNC(=O)c1c(-c2ccccc2)noc1C | – | inactive: -0.0415% [at 9.04 µM]
33 | COc1ccccc1NC(=O)N(Cc1ccco1)Cc1cc2cccc(C)c2[nH]c1=O | active: 16.4 µM | –
34 | COc1cc(C(=O)Nc2c(C(=O)O)[nH]c3ccc(Br)cc23)cc(OC)c1OC | – | inactive: -3.74%
35 | CC(C)=C[C@@H]1C[C@H](C)[C@H]2CC[C@H](C)c3c(O[C@@H]4O[C@@H](C)[C@@H](O)[C@@H](O)[C@@H]4O)c(O)c(C)c1c32 | inconclusive: 25.9 µM [inhibitor, partial curve, poor fit] | –
36 | CCC(C)Nc1nc2c(c(=O)n(C)c(=O)n2C)n1Cc1ccc(Cl)cc1 (stereo not given) | active: 13 µM | –
37 | O=C(COC(=O)c1cnc(Cl)c(Cl)c1)Nc1cccc(S(=O)(=O)N2CCOCC2)c1 | – | inactive: -14.1%
38 | O=C(Nc1ccccc1OCc1cc(=O)n2ccccc2n1)c1cccc(Br)c1 | – | inactive: -13.1%
39 | CCn1c(-c2cc(-c3cc(OC)ccc3OC)nc3ccccc23)n[nH]c1=S | inconclusive: 35.5 µM [inhibitor, single point] | –
40 | CC(O)(c1ccc(F)c(F)c1)c1nc(-c2cccc(F)c2)cs1 (stereo not given) | inconclusive: 29.1 µM [inhibitor, single point] | –
41 | CC(C)CN(C(=O)CN(C)C(=O)Cc1ccccc1Cl)c1c(N)n(CC(C)C)c(=O)[nH]c1=O | inconclusive: 29.1 µM [inhibitor, single point] | –
42 | Cc1ccc(OCC(=O)NNC(=O)c2cccnc2)cc1C | – | inactive: 24.2%
43 | COc1ccc2c(c1)c1c(c(=O)n(Cc3ccccc3)c(=O)n1CC(=O)Nc1cc(C)cc(C)c1)n2C | inconclusive: 4.11 µM [inhibitor, full curve] | –
44 | C=CCNC(=S)Nc1cccc2[nH]ncc12 | – | inactive: -1.79%
45 | C=CCOc1ccc(CNCCO)cc1OCC | – | inconclusive: -30.3% [inhibitor]
46 | COc1ccc(Cc2nnc(NC(=O)c3ccc(F)cc3)s2)cc1OC | – | inactive: -12.1%
47 | COc1ccc(NC(=O)N(C)C[C@H]2Oc3ccc(NS(=O)(=O)c4cccs4)cc3C(=O)N([C@@H](C)CO)C[C@@H]2C)cc1 | – | inconclusive: -34.9% [inhibitor]
48 | Clc1ccc(OCc2nc(-c3ccc(-n4cccc4)cc3)no2)cc1 | – | inactive: -22.5%

Row | SMILES | Potency | activity change, negative = growth inhibition
49 | COc1ccc(CCN(C)C/C=C/c2ccccc2[N+](=O)[O-])cc1OC | inconclusive: 25.9 µM [inhibitor, single point] | –
50 | CCCCn1nnnc1C1(C)CCC(=O)N1CCc1ccc(OC)c(OC)c1 (stereo not given) | – | inactive: -9.42%
51 | O=[N+]([O-])c1cc(C(F)(F)F)cc([N+](=O)[O-])c1NCCN1CCNCC1 | active: 20.6 µM | –
52 | CC1(C)C(=O)Nc2ccccc2N1C(=O)COC(=O)c1ccc(NC(N)=O)cc1 | inconclusive: 23.1 µM [inhibitor, partial curve] | –
53 | CC(=O)c1ccc(N2CCN(C(=O)Nc3ccc(Cl)cc3)CC2)cc1 | inconclusive: 20.6 µM [inhibitor, single point] | –
54 | O=c1oc2cc(O)ccc2s1 | inconclusive: 33.5 µM [inhibitor, single point] | –
55 | Cc1noc(C)c1S(=O)(=O)N(CC(=O)N1CCCC1)c1ccc(C(C)C)cc1 | inconclusive: 29.1 µM [inhibitor, single point] | –
56 | CSc1ccccc1NC(=O)C1(C)CCN1C(=O)Cc1ccc(Cl)cc1Cl (stereo not given) | inconclusive: 25.9 µM [inhibitor, single point] | –
57 | COCCn1c(N2CCN(c3ccccc3)CC2)nc2c1c(=O)n(C)c(=O)n2C | – | inactive: -26.3%
58 | COc1ccc(C(=O)NCc2nnc(SCC(=O)N3CCc4ccccc43)n2CCc2ccccc2)cc1 | inconclusive: 18.4 µM [inhibitor, single point] | –
59 | Cc1ccc2c(n1)sc1c(=O)n(-c3cccc(C(F)(F)F)c3)nnc12 | – | inactive: -17.3%
60 | Cc1ccc(S(=O)(=O)N2CCN(C(=O)COC(=O)COc3cccc4c3OC(C)(C)C4)CC2)cc1 | – | inactive: -9.53%
61 | Cc1ccc(-n2nc3c(N4CCC(C(=O)NCCc5cccs5)CC4)nnc(C)c3c2C)cc1 | active: 25.9 µM | –
62 | CCOc1ccc(NC(=O)CN(C)C(=O)c2cn3ccccc3n2)cc1OCC | – | inactive: -14.6%
63 | COc1ccc(-c2nc3scc(CCNS(=O)(=O)c4cc(F)ccc4OC)n3n2)cc1OC | inconclusive: 18.4 µM [inhibitor, single point] | –
64 | c1ccc(Oc2cc(-c3ccccc3)ncn2)cc1 | – | inactive: -10.2%
65 | C#CCn1c(S(=O)(=O)Cc2ccc(C)cc2)nc(-c2ccccc2)c1-c1ccccc1 | inconclusive: 35.5 µM [inhibitor, single point] and inconclusive: 20.6 µM [inhibitor, single point] | –
66 | CCN(C1CCCCC1)S(=O)(=O)CCNC(=O)c1ccccc1 | – | inactive: -5.55%
67 | CCOc1cccc(-c2nnc3n2N=C(c2cc(OC)ccc2OC)CS3)c1 | inconclusive: 18.4 µM [inhibitor, single point] | –
68 | c1ccc2c(c1)ncn2CCC1CCCCC1 | active: 25.9 µM | –
69 | N#Cc1nc(-c2cccs2)oc1NCc1ccc2c(c1)OCO2 | – | inactive: 8.28%
70 | CN(C(=O)Nc1cccc([N+](=O)[O-])c1)c1ccccc1 | inconclusive: 10.3 µM [inhibitor, partial curve] | –
